In all, about 310,000 compounds went through this assay and about 2,200 (0.71%) showed an effect of 50% or more. Effects have a minus sign here. Some of the results follow.
target: human ether-à-go-go-related gene (hERG) potassium channel (human, UniProt Q12809); assay: primary screen, population patch clamp on CHO cells stably expressing hERG
Sequence (Q12809 whole entry, looked up): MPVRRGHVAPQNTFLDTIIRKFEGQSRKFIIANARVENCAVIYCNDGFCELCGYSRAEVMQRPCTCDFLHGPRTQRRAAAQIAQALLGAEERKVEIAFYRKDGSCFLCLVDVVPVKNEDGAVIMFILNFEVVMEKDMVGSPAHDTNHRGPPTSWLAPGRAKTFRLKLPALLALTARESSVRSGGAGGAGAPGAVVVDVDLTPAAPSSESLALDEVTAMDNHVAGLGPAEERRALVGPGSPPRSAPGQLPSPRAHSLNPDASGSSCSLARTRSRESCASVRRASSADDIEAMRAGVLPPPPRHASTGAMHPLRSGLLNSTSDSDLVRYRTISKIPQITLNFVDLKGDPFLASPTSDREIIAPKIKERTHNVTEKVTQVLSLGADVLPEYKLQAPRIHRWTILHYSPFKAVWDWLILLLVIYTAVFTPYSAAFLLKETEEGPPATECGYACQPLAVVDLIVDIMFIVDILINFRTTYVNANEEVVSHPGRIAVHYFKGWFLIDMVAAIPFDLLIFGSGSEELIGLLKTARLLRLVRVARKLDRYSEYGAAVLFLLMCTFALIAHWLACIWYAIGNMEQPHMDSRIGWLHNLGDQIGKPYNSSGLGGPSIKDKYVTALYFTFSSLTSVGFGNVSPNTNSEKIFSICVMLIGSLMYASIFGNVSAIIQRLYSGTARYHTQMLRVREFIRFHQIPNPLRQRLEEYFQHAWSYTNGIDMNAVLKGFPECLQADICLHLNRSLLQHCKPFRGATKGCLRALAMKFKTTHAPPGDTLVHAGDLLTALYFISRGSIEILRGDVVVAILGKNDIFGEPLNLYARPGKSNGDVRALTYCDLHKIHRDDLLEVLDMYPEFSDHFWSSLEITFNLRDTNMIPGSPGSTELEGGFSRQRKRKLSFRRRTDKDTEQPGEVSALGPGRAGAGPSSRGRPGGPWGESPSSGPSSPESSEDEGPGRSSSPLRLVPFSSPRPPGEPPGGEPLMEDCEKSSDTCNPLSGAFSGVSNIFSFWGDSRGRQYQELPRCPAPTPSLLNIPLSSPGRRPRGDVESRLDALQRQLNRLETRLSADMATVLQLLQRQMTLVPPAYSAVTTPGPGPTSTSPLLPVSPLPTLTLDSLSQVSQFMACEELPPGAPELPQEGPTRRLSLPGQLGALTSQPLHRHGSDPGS

| SMILES | hERG current change (%, negative = inhibition) at 1uM |
| --- | --- |
| Cc1ccc(NC(=O)CCn2c(=O)[nH]c3ccsc3c2=O)cc1C | 9.65% |
| Cl.NCCc1c[nH]c2ccc(O)cc12 | 6.92% |
| O=c1[nH]c2ccccc2nc1C(F)(F)C(F)F | 9.59% |
| CCN(CC)CCNC(=O)C(=O)NCC1OCCN1S(=O)(=O)c1ccc([N+](=O)[O-])cc1 (centres unmarked) | 11.8% |
| NC(=O)CS(=O)(=O)c1nc2ccccc2n1Cc1ccccc1F | 19% |
| Cc1ccc(N2CCN(CC(O)COc3ccc([N+](=O)[O-])cc3)CC2)cc1 (centres unmarked) | -65.4% |
| CCN(c1ccccc1)S(=O)(=O)c1ccc(Cl)c(C(=O)N(CC2CCCO2)C2CCS(=O)(=O)C2)c1 (centres unmarked) | 8.25% |
| COc1cc(C(=O)COC(=O)c2cnc(C)cn2)ccc1OC(F)F | 15.4% |
| CCCCn1c(N)c(N(CCOC)C(=O)c2oc3ccc(OC)cc3c2C)c(=O)[nH]c1=O | 7.08% |
| O=C(c1ccc(F)cc1)N1CCC(C(=O)N2CCN(S(=O)(=O)c3cccc(F)c3)CC2)CC1 | 7.06% |
| CN1C(=O)[C@H]2[C@@H](C3CC3)N3C(=O)CN(Cc4ccccn4)C(=O)[C@@]3(Cc3ccccc3)[C@H]2C1=O | 7.58% |
| NC(=O)CC(NC(=O)c1cccc(Br)c1)c1ccc(NC2CCCCCCC2)c([N+](=O)[O-])c1 (centres unmarked) | 7.23% |
| COc1cc(/C=N/NC(=O)c2cccnc2)ccc1OC(=O)c1cccc(Br)c1 | -1.37% |
| CC1(C)CC(=O)c2sc(NC(=O)c3cccs3)nc2C1 | 5.62% |
| O=C(O)CC(=O)NC12CC3CC(CC(C3)C1)C2 | 9.11% |
| Cc1ccc(NC(=O)CN(C)Cc2cccs2)cc1Cl | 10.8% |
| Cc1nn(Cc2ccccc2Cl)c(C)c1C(=O)Nc1nnc(C2CC2)s1 | 3.25% |
| CC(=O)N=c1cccc(NC(C)=O)n1O | 6.98% |
| NS(=O)(=O)c1ccc(NC(=S)NCc2ccc(F)cc2)cc1 | -6.67% |
| CCCCN1C(=O)CC(C(=O)O)C1c1ccc(OC)cc1 (centres unmarked) | 3.01% |

| SMILES | hERG current change (%, negative = inhibition) at 1uM |
| --- | --- |
| COC(=O)c1ccc(C)c(-n2c(=O)n(Cc3ccccc3)c(=O)c3[nH]cnc32)c1 | 14.7% |
| C#CCOc1ccc(Cl)cc1/C=C1/C(=O)ON=C1C | 12.9% |
| CCOC(=O)COc1nc2ccc(Br)cc2c(-c2ccccc2)c1C(C)=O | 6.63% |
| Cc1ccc2sc(C)[n+](CCO)c2c1.[I-] | 20.4% |
| C=CCn1c(COc2ccc(Cl)cc2)nnc1SCc1ccc(C#N)cc1 | -29.8% |
| CCCN(CCO)Cc1cccc(Oc2ccccc2)c1 | -1.16% |
| COc1ccccc1-c1c(C)nn2c(C)c(C(C)=O)cnc12 | 7.12% |
| Cc1nnc(SCC(=O)NNC(=O)c2ccc(Cl)cc2)s1 | 19.1% |
| Cc1ccc(-c2csc(SCC(=O)Nc3cc(C)on3)n2)cc1 | -1.6% |
| Cc1ccc(C(=O)NCCCN2CCOCC2)c(Cl)c1 | 14.4% |
| CCCN1CCc2c(sc(NC(=S)NC(=O)c3ccccc3)c2C#N)C1 | 11.5% |
| COc1ccccc1CCC(=O)OCC(=O)Nc1cccc(S(=O)(=O)N2CCOCC2)c1 | 0.0189% |
| O=C(COc1cccc(F)c1)NNC(=O)Cc1ccc(Br)cc1 | 12.4% |
| CC1(C)CC(NCCC(c2ccccc2)c2ccco2)CCO1 (centres unmarked) | -22.9% |
| COc1ccc2oc(=N)c(C(=O)Nc3ccc(Cl)cc3)cc2c1 | 12.1% |
| Cc1ccc(-n2c(SCC(=O)Nc3ccc4c(c3)OCCO4)nnc2-c2ccco2)cc1 | -17.5% |
| N#Cc1cn(Cc2ccccc2)c(=O)[nH]c1=O | 15.9% |
| CC1(C)CC(=O)c2cnc(N)nc2C1 | 11.3% |
| CC(C)Cc1cc(C(=O)Nc2sc3c(c2C#N)CCC3)no1 | 8.6% |
| Cc1ccccc1-c1nc(CS(=O)(=O)CC(=O)NC(C)c2ccccc2)c(C)o1 (centres unmarked) | 11.9% |

| SMILES | hERG current change (%, negative = inhibition) at 1uM |
| --- | --- |
| C/C(=N\NC(N)=S)C1=CCC2C3CC[C@H]4CC(O)CC[C@]4(C)C3CC[C@]12C (some centres unmarked) | 1.41% |
| Cc1ccc2c(c1)nnn2C1CCN(S(=O)(=O)c2ccc(C(=O)N(C)C)cc2)CC1 | -12.6% |
| Cc1ccc(NC(NC(=O)c2cccnc2)C(Cl)(Cl)Cl)cc1 (centres unmarked) | 7.94% |
| CCOCCCNC(=O)c1ccccc1SCC | 0.338% |
| Cc1cc(C)nc(NCc2ccc(Cl)cc2)n1.Cl | 10.3% |
| O=C(CSc1nnc(NC(=O)C2CC2)s1)Nc1ccc(F)cc1 | 17.2% |
| Cc1cccc(CN2CCC(Oc3ccc(C(=O)N4CCCCC4)cc3)CC2)c1 | 7.21% |
| COC(=O)CCc1sc(Nc2ccccc2)nc1-c1ccc(OC)cc1 | 8.21% |
| CSc1nc2ccccc2cc1/C=C(\C#N)c1ccc(Cl)c(Cl)c1 | 8.86% |
| CCn1c(=O)c([N+](=O)[O-])c(NCCc2ccc(OC)c(OC)c2)c2ccccc21 | 6.82% |
| CC(=O)N1N=C(c2ccc(Cl)cc2)OC12CCCC2 | 8.68% |
| CCCSc1nn2c(=O)c3ccccc3nc2s1 | 6.86% |
| CCN(CC)C(=O)C(C)N(C#N)c1nc(SC)nc(N(C)C)n1 (centres unmarked) | -5.14% |
| COc1cnc(SC(C)C)[nH]c1=O | 19.4% |
| O=C1CC(=O)N(c2cccc(F)c2)C(=O)N1 | 16.9% |
| CNc1nc2c(N)ncnc2n1[C@H]1O[C@@H](CO)[C@H](O)[C@@H]1O | 7.61% |
| CC(C)CN=CC1=C(O)c2ccccc2C1=O | -28% |
| CN1CCc2c(c3ccccc3n2Cc2ccccc2)C1.Cl | -30.9% |
| Oc1ccccc1-c1nnc2n1CCCCC2 | 10.6% |

— paper PMC4336329 (PLoS ONE, 2015)
